From PMC5700166
The entries are a selection whose mix differs from that of the whole data set. For part of these data: The list includes weakly bound sequences.

Experiments:
[1] = target: T1, GST-Nv-NF-kB (Cys allele) (UniProt E5G601); experiment: protein-binding microarray (PBM); settings: PBM: ~300 nM protein, 6 mM HEPES pH 7.8, 80 mM KCl, 0.5 mM EDTA, 0.5 mM EGTA, 6% glycerol, 35 ng/ul poly-dIdC, 1% milk, 1 h, room temperature; high values mean tight binding; double strand, one strand shown
T1 sequence: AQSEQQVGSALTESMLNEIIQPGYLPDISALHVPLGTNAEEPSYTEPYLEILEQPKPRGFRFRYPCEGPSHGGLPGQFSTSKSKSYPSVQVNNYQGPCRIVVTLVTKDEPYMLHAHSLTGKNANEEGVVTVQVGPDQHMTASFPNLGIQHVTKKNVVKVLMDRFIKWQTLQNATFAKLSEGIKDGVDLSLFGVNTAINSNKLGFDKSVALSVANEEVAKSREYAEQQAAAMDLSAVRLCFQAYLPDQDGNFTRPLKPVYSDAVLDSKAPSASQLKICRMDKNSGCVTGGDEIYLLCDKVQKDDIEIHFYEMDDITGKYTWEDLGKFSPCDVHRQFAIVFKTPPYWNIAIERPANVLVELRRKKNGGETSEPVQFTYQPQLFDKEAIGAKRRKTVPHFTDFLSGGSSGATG

[2] = target: T2, GST-Dm-Relish (UniProt Q94527); experiment: protein-binding microarray (PBM); settings: PBM: ~300 nM protein, 6 mM HEPES pH 7.8, 80 mM KCl, 0.5 mM EDTA, 0.5 mM EGTA, 6% glycerol, 35 ng/ul poly-dIdC, 1% milk, 1 h, room temperature; Ap Aiptasia and Nv Nematostella (sea anemones) / Co Capsaspora / Aq Amphimedon (sponge) / Dm Drosophila / Hu human; RHD is the Rel homology domain; high values mean tight binding; most listed sequences are background and not binding sites; double strand, one strand shown
T2 sequence: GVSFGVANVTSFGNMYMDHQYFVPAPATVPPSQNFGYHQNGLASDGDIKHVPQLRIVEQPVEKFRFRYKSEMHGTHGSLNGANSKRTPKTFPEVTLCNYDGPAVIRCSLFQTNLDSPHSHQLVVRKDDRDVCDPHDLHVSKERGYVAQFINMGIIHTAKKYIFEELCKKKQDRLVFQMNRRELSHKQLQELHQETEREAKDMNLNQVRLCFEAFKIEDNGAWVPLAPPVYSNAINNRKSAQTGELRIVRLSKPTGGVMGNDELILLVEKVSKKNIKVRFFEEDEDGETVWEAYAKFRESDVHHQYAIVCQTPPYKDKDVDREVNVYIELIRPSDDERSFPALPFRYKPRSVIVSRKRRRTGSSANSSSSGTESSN

Sequence | binding signal [1] [z-score] | binding signal [2] [z-score]
CCGATTAACATCACAGATTTCCCTGATGTTAATCGGGTCTTGATTCGCTTGACGCTGCTG | 5.4 | 2.66
CCGATTAACATCAGATTTTCCCATGATGTTAATCGGGTCTTGATTCGCTTGACGCTGCTG | 5.14 | 1.26
CCGATTAACATCAGGGAATTGGATGATGTTAATCGGGTCTTGATTCGCTTGACGCTGCTG | 3.52 | -0.156
CCGATTAACATCAAGGGAAAAATTGATGTTAATCGGGTCTTGATTCGCTTGACGCTGCTG | 6.35 | 1.89
CCGATTAACATCACGGTTTTCCCTGATGTTAATCGGGTCTTGATTCGCTTGACGCTGCTG | 5.02 | 4.43
CCGATTAACATCAAGCAACCCCCTGATGTTAATCGGGTCTTGATTCGCTTGACGCTGCTG | 3.34 | 5.19
CCGATTAACATCAATATAGTCCCTGATGTTAATCGGGTCTTGATTCGCTTGACGCTGCTG | 4.77 | 1.16
CCGATTAACATCAATCTTTTCCCTGATGTTAATCGGGTCTTGATTCGCTTGACGCTGCTG | 4.39 | 0.957
CCGATTAACATCAGAGTTTCCCATGATGTTAATCGGGTCTTGATTCGCTTGACGCTGCTG | 3.42 | 0.859
CCGATTAACATCACGGGAAACTCTGATGTTAATCGGGTCTTGATTCGCTTGACGCTGCTG | 4.12 | 1.55
CCGATTAACATCAAGTATTCCCATGATGTTAATCGGGTCTTGATTCGCTTGACGCTGCTG | 2.26 | 2
CCGATTAACATCATTTTGGGGACTGATGTTAATCGGGTCTTGATTCGCTTGACGCTGCTG | 3.66 | 1.4
